Experimental data as given in PubChem BioAssay AID485297 (National Center for Advancing Translational Sciences (NCATS), 2010).
The whole screen tested about 320,000 compounds, of which about 9,100 (2.8%) were called active. Inconclusive means that the source gave no clear call. Such entries were picked first, then a sample of the others. Calls follow the shape of the dose curve; as a rule, active = well fitted activation curve with a large enough effect; inconclusive = small, poorly fitted or top-dose-only effect; inactive = no such curve, though single readings can be large or run the other way. Where the call is inconclusive, the potency comes from a doubtful curve fit.

assay: qHTS Assay for Rab9 Promoter Activators; details: Huh7 Rab9 promoter-luciferase reporter, luminescence, 24 h; series mostly up to 9.22 µM; also: nearly all actives have a fitted effect of over 60% in size
Outline: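 Huh7 reporter line, Rab9 promoter upstream of luciferase. Compound exposure 24 h at 37 °C in reduced-serum medium with 10% FBS. Read-out: luminescence.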
Potency is read from the fitted curve at half-maximal effect; tags tell the direction and shape of the fitted curve.

Potency, inactive:
COc1cc(/C=C/C(=O)OCC(=O)N2CCN(S(=O)(=O)c3ccc(C)cc3C)CC2)ccc1O, CCCOc1ccc(/C=N/n2nnnc2N)cc1OC, O=C(NC1CCCC1)c1cc(COc2ccc3ncccc3c2)on1, CC1CCCCC1NC(=O)NC(=O)COC(=O)c1ccc(OC(F)F)cc1 (stereo not drawn), Cc1ccccc1/C=N/NC(=O)c1ccc(-n2cnnn2)cc1, COc1ccccc1N(CC(=O)N(C)Cc1ccccc1)S(=O)(=O)c1cccs1, CC1CCN(C(=S)NC(=O)c2cccs2)CC1, Nc1nc2n(n1)C(c1ccc(F)cc1)CC(c1ccc(F)cc1)N2 (stereo not drawn), CCN(CC)CC(=O)Nc1nc(-c2ccc(Cl)cc2)cs1, CC(=O)N/C(=C\c1ccccc1)C(=O)OC(C)C(=O)Nc1ccccc1F (stereo not drawn), Cc1ccc(-c2nn[nH]n2)cc1Cl, COc1ccc(C)cc1NC(=S)NNC(=O)c1ccccc1Cl, CC(C)CN1CCC(=O)N([C@H](CO)c2ccccc2)CC1, O=C(NNc1c([N+](=O)[O-])cc(C(F)(F)F)cc1[N+](=O)[O-])c1ccco1, COc1cccc(/C=C2\SC(=S)N(CC3CCCO3)C2=O)c1 (stereo not drawn), COc1ccc(OC)c2c1cc(C(=O)N[C@@H](C)C(=O)N[C@@H](C(=O)O)c1ccccc1)n2C, Cc1ccc(OC(C)C(=O)N2CC(=O)Nc3ccccc32)cc1 (stereo not drawn), Cc1ccc(-n2cc(CN3CCCN(C=O)CC3)c(-c3ccc(F)cc3)n2)cc1

Potency, active:
COc1ccccc1N1CCN(c2ccc3ccccc3n2)CC1 0.316 µM, CC(C)c1ccc(/C=C/C(=O)Nc2nncs2)cc1 0.501 µM, Cc1nn(-c2ccc(N3CCCCC3)nn2)c(C)c1CCC(=O)Nc1ccc(F)c(F)c1 2.51 µM, O=c1c2ccccc2nc2ccc(NCc3cccs3)nn12 1.58 µM, O=C(Cc1ccccc1)N/N=C/c1ccc2c(c1)OCO2 3.98 µM, Cc1nc(Nc2ccccc2)sc1-c1ccccc1 0.398 µM, COc1ccc2oc(C(=O)Nc3nnc(C)s3)c(C)c2c1 0.708 µM, O=C(Nc1nccs1)c1ccc(-c2ccccc2Cl)o1 2.51 µM, c1ccc2c(c1)NC1(CCCCCC1)n1c-2nc2ccccc21 3.16 µM, COc1cc(/C=N/O)ccc1OCc1ccccc1Cl 1.58 µM, COc1ccc(C(=O)Nc2nnc(SCC(=O)NCc3ccco3)s2)c(OC)c1 0.316 µM, COc1ccc2nc3oc(C(=O)N4CCCCC4)cc3cc2c1 2.82 µM, Cc1ccc(/C=[N+](\[O-])c2ccc(N(C)C)cc2)c2nsnc12 1.12 µM, Cc1nnc(SCC(=O)c2ccc(Cl)cc2)n(N)c1=O 1 µM

Potency, inconclusive:
CCOCCCNC(=O)Cc1ccc(F)cc1 1.26 µM [activator, single point], CC(=O)Nc1ccc(S(=O)(=O)N/N=C/c2ccc(C)s2)cc1 2.82 µM [activator, partial curve], Oc1cccc(Nc2ncnc3c2oc2ccccc23)c1 4.47 µM [activator, single point], COc1ccccc1NC(=O)C(=O)c1cn(CC(=O)N2CCOCC2)c2ccccc12 3.16 µM [activator, single point], COc1ccc(OCCN2C(=O)c3cccc(N)c3C2=O)cc1 5.62 µM [activator, partial curve], COc1ccc(NC(=O)CSc2ccccn2)cc1 3.16 µM [activator, single point], CC(=O)c1sc(N/N=C\c2ccc(Br)cc2)nc1C 5.62 µM [activator, single point], Cc1ccc(NC(=O)C2C3CCCCC32)cc1[N+](=O)[O-] (stereo not drawn) 3.55 µM [activator, partial curve], O=C(O)CCC(=O)c1ccc(-c2ccccc2)cc1 5.62 µM [activator, single point], O=[N+]([O-])c1cccc(NN=Nc2ccccc2)c1 3.16 µM [activator, single point], COC(=O)C1CCCCN1C(=O)c1ccc2oc(Cc3ccccc3)nc2c1 (stereo not drawn) 3.55 µM [activator, partial curve], Cc1cc(C)cc(C(=O)O/N=C(\N)c2ccc(Br)cc2)c1 3.98 µM [activator, partial curve], c1ccc(-c2cnc(-c3cccnc3)o2)cc1 3.16 µM [activator, partial curve], CCCOC(=O)c1ccc(NC(=O)c2ccccc2[N+](=O)[O-])cc1 3.55 µM [activator, single point], COc1ccccc1OCc1nc2ccccc2n1C 3.16 µM [activator, partial curve], CCC(C)NC(=O)Nc1ccc(Br)cc1 (stereo not drawn) 2.82 µM [activator, partial curve], CN/N=C(\Cc1nc2ccccc2[nH]1)c1ccc([N+](=O)[O-])cc1 5.62 µM [activator, single point], O=C(Nc1cccc(-c2nn[nH]n2)c1)c1cccs1 3.16 µM [activator, partial curve], O=c1sc2ccccc2n1CCOc1ccccc1 2.51 µM [activator, single point], Cc1cc(OCCN2CCOCC2)ccc1[N+](=O)[O-] 5.62 µM [activator, single point], COc1ccc2c(c1)O/C(=C\c1ccccc1C)C2=O 3.55 µM [activator, partial curve], C=CCNc1nc(-c2sc(NC(=O)CC)nc2C)cs1 2.82 µM [activator, partial curve], O=C(Nc1nnc(-c2ccc(Cl)s2)o1)C1CC1 1.41 µM [activator, partial curve], CCC(NC(=O)c1cc(COc2ccc(OC)cc2Cl)on1)c1ccncc1 (stereo not drawn) 3.16 µM [activator, single point], COC(C(=O)N1CCC(n2nccc2NC(=O)C2CC2)CC1)c1ccccc1 (stereo not drawn) 4.47 µM [activator, partial curve], CCOC(=O)CCCC(=O)N1CCOCCOCCN(C(=O)CCCC(=O)OCC)CCOCCOCC1 3.55 µM [activator, partial curve], Cc1ccc(NC(=O)c2ccc3c(c2)nnn3C)cc1 3.16 µM [activator, single point], CCCc1cc(C(=O)NCc2cccs2)no1 5.01 µM [activator, partial curve], CCOC(=O)C1CCCN(C(=O)c2ccc3nc(-c4cccc(OC)c4)oc3c2)C1 (stereo not drawn) 0.562 µM [activator, full curve], CCOC(=O)c1cc2c(C)n(-c3ccc(N(C)C)cc3)c(C)c2cc(C(=O)OCC)c1=O 3.16 µM [activator, partial curve], Cc1ccc(-c2cc(C(=O)n3cnc4ccccc43)c3ccccc3n2)cc1C 3.55 µM [activator, partial curve], Cc1cccc(OCC(=O)O/N=C(\N)c2ccccn2)c1C 4.47 µM [activator, partial curve], CCCCn1nnc(NC(=O)c2ccc(-c3ccccc3)cc2)n1 3.98 µM [activator, single point], O=C(Nc1ccc2c(c1)OCO2)c1cncc(Br)c1 3.16 µM [activator, partial curve], COc1ccc(C(=O)NC(=S)NC2CCCCC2)cc1 3.16 µM [activator, partial curve], C/C(=N/Nc1nc(-c2ccc(Cl)cc2)cs1)c1cccs1 5.62 µM [activator, single point], CC1(C)NC(=O)N(CCCOc2ccc(Br)cc2Cl)C1=O 2.82 µM [activator, partial curve], O=C(NCCc1c[nH]c2ccccc12)c1ccccc1 3.55 µM [activator, partial curve], O=C(NCCCN1CCCC1=O)c1sc2ccccc2c1Cl 4.47 µM [activator, partial curve], COc1cc(SC)ccc1C(=O)OCC(=O)NC1CCCC1 5.62 µM [activator, single point], O=C(O)c1ccccc1NN=C1CCCCC1 5.01 µM [activator, single point], O=c1c2oc3nc4c(cc3c2ncn1CCCc1ccccc1)CCCC4 5.62 µM [activator, single point], Cc1c(C(=O)Oc2ccc(-c3cnc4ccccc4n3)cc2)cccc1[N+](=O)[O-] 5.62 µM [activator, single point], O=C(Nc1ccc(N2CCCCC2)cc1)c1cccnc1 2.82 µM [activator, partial curve], Cc1cccc(C)c1OCc1cc(C(=O)N2CCC(c3ccccc3)CC2)no1 6.31 µM [activator, single point], COc1ccc(C(=O)Nc2cccc3ccccc23)cc1 6.31 µM [activator, partial curve]
